The list shows a part of the results.
system: T1, Caupolican (Caup) homeodomain DNA-binding domain; test: PBM E-score (8-mer, recovered from the published 9-mer minima) (E-score (dimensionless, -0.5 to 0.5)); Drosophila protein; higher = stronger relative binding preference, active = 0.31 or more
T1 sequence: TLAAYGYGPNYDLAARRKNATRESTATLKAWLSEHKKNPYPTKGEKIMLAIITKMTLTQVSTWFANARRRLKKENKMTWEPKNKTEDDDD
Procedure, shortened: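 An enrichment score, with higher meaning stronger, expresses relative binding preference for each short DNA word. The protein used was Caup's homeodomain DNA-binding domain (residues 214-303), produced by in vitro transcription and translation and tested at 100 nM on custom-designed protein binding microarrays. The 8-mer values were recovered from published 9-mer scores, each equal to the lower of its two constituent 8-mer scores.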

| Sequence | PBM E-score |
| --- | --- |
| CTTTGTCA | inactive: 0.0793 |
| GCCCCAAA | inactive: -0.158 |
| GGCAGACA | inactive: -0.0528 |
| TCGCTTCA | inactive: -0.083 |
| ATAACGTC | inactive: 0.0839 |
| GCTTGAAA | inactive: -0.00961 |
| GCGCTTCC | inactive: -0.169 |
| CATTCTCC | inactive: 0.0295 |
| AGCTACGA | inactive: -0.0245 |
| TCCATCCA | inactive: 0.102 |
| TCCTTCAA | inactive: -0.0696 |
| ACGATGTG | inactive: 0.2 |
| GTCGCTCA | inactive: 0.0271 |
| AAGGCGGG | inactive: -0.214 |
| CTCAGCCC | inactive: -0.18 |
| AGATCTGA | inactive: 0.0307 |
| TCTGTACA | inactive: 0.281 |
| CCTAGTCC | inactive: -0.0964 |
| CGCGTGTA | inactive: 0.285 |
| ACGCGTCG | inactive: 0.014 |
| CGATTTTC | inactive: -0.00776 |
| AAACGACA | inactive: 0.27 |
| CCTCTGCG | inactive: -0.256 |
| AGTATTGA | inactive: 0.13 |
| ACGTAAAG | inactive: 0.129 |

| Sequence | PBM E-score |
| --- | --- |
| ACAGGACT | inactive: 0.0647 |
| AAGATGGT | inactive: 0.109 |
| GATAGATA | inactive: 0.08 |
| GATCAGGA | inactive: -0.0452 |
| TGTGAAAA | inactive: 0.058 |
| AAGGAACT | inactive: 0.0172 |
| ACATATAG | inactive: 0.256 |
| CTCCACCC | inactive: -0.208 |
| GATTGCAC | inactive: 0.0881 |
| CGAATTGA | inactive: 0.0175 |
| ATCGAGAG | inactive: -0.099 |
| AGTGAGCA | inactive: 0.0293 |
| TATCATAA | inactive: 0.216 |
| CGAACCGC | inactive: -0.165 |
| CGACGCGC | inactive: -0.116 |
| GACGCGCA | inactive: -0.0964 |
| AATGACGC | inactive: 0.0746 |
| CGAGGCGC | inactive: -0.252 |
| AACACCGG | inactive: 0.0729 |
| AACCGGGG | inactive: -0.215 |
| AGGGGTAA | inactive: -0.0827 |
| CCTGTAGC | inactive: 0.0876 |
| GCCTTAAC | inactive: -0.0115 |
| CTCTGGGC | inactive: -0.214 |
| ACCCTACC | inactive: -0.0635 |

| Sequence | PBM E-score |
| --- | --- |
| TACGATGA | inactive: 0.0856 |
| AGAGCGTA | inactive: -0.00417 |
| CTTGTGCA | inactive: 0.18 |
| CGTTGCAC | inactive: -0.0617 |
| GATATCAC | inactive: 0.142 |
| CGCACCGA | inactive: -0.0712 |
| AATTCGAC | inactive: -0.0112 |
| ACAGTTCG | inactive: 0.0719 |
| CCGTTTCG | inactive: -0.0696 |
| CCACTGAC | inactive: -0.103 |
| TGGACAAA | inactive: 0.137 |
| AATCAGAA | inactive: 0.0342 |
| GGACTGAC | inactive: -0.065 |
| AATTTGAG | inactive: 0.0364 |
| ATCTCCAT | inactive: -0.0205 |
| ATTTATTA | inactive: 0.159 |
| TTTGAAAA | inactive: 0.105 |
| ACAAGCTC | inactive: 0.174 |
| CGAAGGAC | inactive: -0.134 |
| GGCCAGCC | inactive: -0.303 |
| CACTGTCG | inactive: -0.00412 |
| GACTAGTA | inactive: 0.181 |
| ACTATTTC | inactive: 0.118 |
| ACCCCCCG | ≥ -0.261 |
| CTATTCCA | inactive: 0.057 |

| Sequence | PBM E-score |
| --- | --- |
| AGCAACTG | inactive: 0.0583 |
| ACTAAAAT | inactive: 0.00661 |
| TCGGACGA | ≥ 0.0284 |
| CAGAAGAA | inactive: -0.128 |
| AAACTGTT | inactive: 0.148 |
| AACTCGTG | inactive: 0.0974 |
| AACATTCT | inactive: 0.198 |
| CTGGACAC | inactive: 0.127 |
| GTCCTGAA | inactive: -0.0522 |
| AATCCAGA | inactive: 0.0913 |
| ATGCGGCG | inactive: -0.141 |
| AGCCCGGG | inactive: -0.238 |
| GCGGGGTA | inactive: -0.169 |
| AGGATCAT | inactive: 0.0598 |
| AATCGCCC | inactive: -0.222 |
| CTAAATAA | inactive: 0.181 |
| GGTGAGGA | inactive: -0.185 |
| TACAATGA | inactive: 0.266 |
| ATTACCCC | inactive: -0.0955 |
| CCGCGACA | inactive: 0.0973 |
| GCAATCAA | ≥ 0.14 |
| GCTACTAC | inactive: 0.0967 |
| ATTTGGAC | inactive: 0.134 |
| TAGCAAGA | inactive: 0.142 |
| AAGCACGT | ≥ 0.0899 |

| Sequence | PBM E-score |
| --- | --- |
| CGGTCATA | inactive: -0.0654 |
| CCTAGCAC | inactive: -0.0903 |
| AATGACAC | inactive: 0.277 |
| ATATTAGC | inactive: 0.157 |
| ATAGCGGC | inactive: -0.136 |
| AGGTCACG | inactive: -0.0767 |
| GGTAGGAC | inactive: -0.125 |
| CCCGCCTC | inactive: -0.15 |
| CCCGGAAG | inactive: -0.276 |
| AGACGCTA | inactive: -0.084 |
| AATGGCAA | inactive: -0.0138 |
| ACCACCGC | inactive: -0.0681 |
| CAATTACA | active: 0.334 |
| CATAGAGA | inactive: 0.113 |
| CCGGACAG | inactive: 0.0176 |
| CGGAAATC | inactive: -0.0888 |
| ACGTTCAC | inactive: 0.0125 |
| CTGTACAC | inactive: 0.284 |
| ACTATAGC | inactive: 0.0259 |
| CCATCTAC | inactive: -0.0737 |
| CCAGATGG | inactive: -0.168 |
| TAAGATTA | inactive: 0.0251 |
| CTCGACGC | inactive: -0.0524 |
| GCTGCTCA | inactive: -0.0422 |
| ATGGATCG | inactive: -0.0232 |

| Sequence | PBM E-score |
| --- | --- |
| CACAAGAG | inactive: 0.022 |
| GAATGCAC | inactive: 0.0473 |
| ACCCGCTC | inactive: -0.235 |
| ATTAATGC | inactive: 0.0182 |
| CGCAAAGA | inactive: -0.0403 |
| GAAGCCAA | inactive: -0.168 |
| CACCGCTG | inactive: -0.123 |
| AGAACTAC | inactive: 0.18 |
| TGCGCGCA | inactive: -0.0447 |
| CTCACTCA | inactive: 0.0463 |
| ATCCTTCC | inactive: -0.048 |
| CGACAAGA | active: 0.317 |
| ATGGCTCG | inactive: -0.0111 |
| CAGCATGC | inactive: 0.00197 |
| GGCACTCA | inactive: -0.101 |
| ATAGGGAA | inactive: -0.0647 |
| AAGTGGGT | inactive: -0.137 |
| TGAGGAAA | inactive: 0.00643 |
| CGTGAAGC | inactive: -0.189 |
| ACCAACGT | inactive: 0.0687 |
| AAGAGTAG | inactive: -0.0204 |
| ACATTCGC | inactive: 0.0849 |
| AAGCGCGT | inactive: -0.156 |
| CAGTTAAG | inactive: 0.0884 |
| CCGGACCC | inactive: -0.243 |

| Sequence | PBM E-score |
| --- | --- |
| ACGGCTAC | inactive: -0.106 |
| AGTTTCAG | inactive: -0.0628 |
| ACCGGTCT | inactive: -0.11 |
| ATGAAAAA | inactive: 0.0536 |
| AAGGACGC | inactive: -0.116 |
| TAGGTCGA | inactive: -0.0677 |
| CCCTTATC | inactive: -0.052 |
| GAGATGCC | inactive: -0.0386 |
| ATCAATAC | inactive: 0.144 |
| GACAACGA | inactive: 0.179 |
| CGTTCGTC | inactive: -0.00872 |
| CATCGTGA | inactive: -0.0534 |
| ATAGTGGA | inactive: 0.071 |
| GGCCCCTA | inactive: -0.291 |
| CTTTAGCC | inactive: -0.125 |
| CTGTGAAC | inactive: 0.131 |
| ATCGGCAG | inactive: -0.147 |
| ACTCACTA | inactive: 0.0626 |
| ACAAACGG | inactive: 0.0483 |
| AGAGCTCC | inactive: -0.257 |
| GTAGGCTA | inactive: -0.0057 |
| ATACAACA | active: 0.373 |
| CGAGTAGC | inactive: -0.0374 |
| GTAAGTAA | inactive: 0.141 |
| GAGATAAC | inactive: 0.0299 |

| Sequence | PBM E-score |
| --- | --- |
| GTAGATCA | inactive: 0.108 |
| ATAGAGAC | inactive: 0.0227 |
| ATACAGAC | inactive: 0.194 |
| TACCTGGA | inactive: 0.0703 |
| CGGCGACC | inactive: -0.261 |
| AGCTTCAC | inactive: -0.0515 |
| CTTATTCC | inactive: 0.00982 |
| AGCGCCAC | inactive: -0.225 |
| ATCAGGAG | inactive: -0.0418 |
| GAGCTCCC | inactive: -0.288 |
| ACTTAACC | inactive: 0.0525 |
| TGAAGTAA | inactive: 0.0135 |
| AAAAGATC | inactive: -0.053 |
| ATCTACAA | inactive: 0.253 |
| CACCATGG | inactive: -0.00796 |
| GTAATCTA | ≥ 0.259 |
| ACGCGCTC | inactive: -0.0722 |
| AATAAATT | inactive: 0.103 |
| TGCTATAA | inactive: 0.051 |
| AAGGGGAC | inactive: -0.0768 |
| ACATGCGC | inactive: 0.288 |
| CACATGCA | inactive: 0.166 |
| ATAGTGAG | inactive: 0.0734 |
| AAGTGGAC | inactive: -0.00011 |
| AGCCTAAA | inactive: -0.0263 |

| Sequence | PBM E-score |
| --- | --- |
| ATCAGGTA | inactive: 0.105 |
| CCCTGTCG | inactive: -0.0227 |
| CGCTCACC | inactive: -0.187 |
| AGCACCTG | inactive: -0.0731 |
| GCTATACC | inactive: -0.0691 |
| AACGGTCC | inactive: -0.136 |
| AAACAAGC | inactive: 0.254 |
| AATGCCAA | inactive: 0.00972 |
| ACCTGCCC | inactive: -0.157 |
| AAGCTACC | inactive: 0.03 |
| TACTCGCA | inactive: -0.0284 |
| GTTACGGA | inactive: 0.0254 |
| GACATCGA | inactive: 0.24 |
| ATGTATTA | active: 0.373 |
| CGCACCGC | inactive: -0.173 |
| AACTCTTA | inactive: 0.0508 |
| GGCCCGAC | inactive: -0.183 |
| GGTCGTAA | inactive: 0.0682 |
| CGCACGCC | inactive: -0.222 |
| ATTTGTTC | inactive: 0.225 |
| ACTCTCTG | inactive: -0.0214 |
| AGGATTAG | inactive: 0.0867 |
| CCGGGACA | inactive: 0.0605 |
